Laboratory results as given in PubChem BioAssay (NCI).
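Assay format: 96-well plates, 48-hour exposure. GI50 marks 50% less growth. TGI: concentration producing complete growth inhibition.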

Tested on: NCI-H322M lung
Test: NCI anticancer screen, dose series, 48 h

| SMILES | GI50 | TGI |
| --- | --- | --- |
| COc1cc(/C=C/C(=O)c2ccc(S(=O)(=O)NCCNc3nc(N(C)C)nc(N4CCOCC4)n3)cc2)cc(OC)c1OC | 7.82 µM | 21.1 µM |
| CN(C)CCn1c2ccccc2c2nc3cc4ccccc4cc3nc21 | 2.74 µM | 15.1 µM |
